Experimental data reported in the supplement of paper PMC4996465.

Experiments:
KB3-1 = assay: viability (% of DMSO control); higher = more viable cells
Protocol: (§1)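 Eleven-dose screen of the NCATS MIPE 3 library on cells without co-treatment; CellTiter-Glo after 48 h, as % of DMSO wells.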

Nalm-6 [1] = assay: as above
Protocol: as §1

Nalm-6 [2] = assay: log AC50 of viability decrease (48 h) (log10 M); higher = less potent
Protocol: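 Eleven-dose screen of the NCATS MIPE 3 library on cells without co-treatment; CellTiter-Glo after 48 h. AC50 from the curve fit; only inhibitory curves of the better fit classes are listed.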

Compound | viability (KB3-1; 0.00078 µM) [%] | viability (KB3-1; 0.00234 µM) [%] | viability (KB3-1; 0.00702 µM) [%] | viability (KB3-1; 0.0211 µM) [%] | viability (KB3-1; 0.0632 µM) [%] | viability (KB3-1; 0.19 µM) [%] | viability (KB3-1; 0.569 µM) [%] | viability (KB3-1; 1.71 µM) [%] | viability (KB3-1; 5.12 µM) [%] | viability (KB3-1; 15.4 µM) [%] | viability (KB3-1; 46.1 µM) [%] | viability (Nalm-6 [1]; run: 1, 0.00078 µM) [%] | viability (Nalm-6 [1]; run: 1, 0.00234 µM) [%] | viability (Nalm-6 [1]; run: 1, 0.00702 µM) [%] | viability (Nalm-6 [1]; run: 1, 0.0211 µM) [%] | viability (Nalm-6 [1]; run: 1, 0.0632 µM) [%] | viability (Nalm-6 [1]; run: 1, 0.19 µM) [%] | viability (Nalm-6 [1]; run: 1, 0.569 µM) [%] | viability (Nalm-6 [1]; run: 1, 1.71 µM) [%] | viability (Nalm-6 [1]; run: 1, 5.12 µM) [%] | viability (Nalm-6 [1]; run: 1, 15.4 µM) [%] | viability (Nalm-6 [1]; run: 1, 46.1 µM) [%] | viability (Nalm-6 [1]; run: 2, 0.00078 µM) [%] | viability (Nalm-6 [1]; run: 2, 0.00234 µM) [%] | viability (Nalm-6 [1]; run: 2, 0.00702 µM) [%] | viability (Nalm-6 [1]; run: 2, 0.0211 µM) [%] | viability (Nalm-6 [1]; run: 2, 0.0632 µM) [%] | viability (Nalm-6 [1]; run: 2, 0.19 µM) [%] | viability (Nalm-6 [1]; run: 2, 0.569 µM) [%] | viability (Nalm-6 [1]; run: 2, 1.71 µM) [%] | viability (Nalm-6 [1]; run: 2, 5.12 µM) [%] | viability (Nalm-6 [1]; run: 2, 15.4 µM) [%] | viability (Nalm-6 [1]; run: 2, 46.1 µM) [%] | log AC50 of viability decrease (Nalm-6 [2]; run: 1) | log AC50 of viability decrease (Nalm-6 [2]; run: 2)
COc1cc2c(Nc3ccc(Br)cc3F)ncnc2cc1OCC1CCN(C)CC1 [Vandetanib] | 100 | 107 | 102 | 101 | 102 | 104 | 102 | 102 | 101 | 96 | 18.7 | 109 | 118 | 120 | 117 | 120 | 121 | 124 | 109 | 107 | 90.8 | 5.18 | 110 | 107 | 107 | 108 | 110 | 105 | 109 | 100 | 93.2 | 82.9 | 4.16 | -4.68 | -4.68
NC(=O)c1c(OCc2c(F)cc(Br)cc2F)nsc1NC(=O)NCCCCN1CCCC1 [OSI-632] | 105 | 101 | 107 | 103 | 107 | 104 | 107 | 109 | 116 | 111 | 13.3 | 118 | 123 | 117 | 131 | 123 | 127 | 121 | 112 | 98.8 | 88.9 | 0.752 | 104 | 114 | 111 | 112 | 106 | 113 | 103 | 103 | 94.8 | 91.3 | 0.374 | -4.68 | -4.63
CC(=O)NC(C)c1ccc(Oc2ccc(OC(C)C)cc2)cc1 (stereo unspecified) [ACC1 BMS] | 97 | 97.4 | 105 | 95.3 | 99.9 | 104 | 106 | 106 | 104 | 83.9 | 73.4 | 63.5 | 90.7 | 97.9 | 100 | 106 | 108 | 106 | 106 | 74.6 | 61.2 | 36.7 | 97.3 | 92.2 | 94.6 | 92.2 | 104 | 108 | 103 | 101 | 89.4 | 73.6 | 42.7 |  | -4.78
CCCCn1c(=O)n(Cc2ccccc2F)c(=O)c2nc(Cc3ccc(NC(C)=O)cc3)[nH]c21 [cPEPCK inhibitor] | 97.7 | 96.8 | 103 | 99.7 | 95.2 | 96.7 | 96.8 | 9.13 | 4.89 | 87.5 | 77.9 | 124 | 105 | 112 | 115 | 123 | 105 | 106 | 84.3 | 32.8 | 9.4 | 5.37 | 112 | 102 | 105 | 115 | 111 | 110 | 106 | 107 | 107 | 106 | 93.3 | -5.48 | 
CCOc1cc(C(=O)Nc2ccc(Cl)c(-c3nc4ccccc4[nH]3)c2)cc(OCC)c1OCC [SANT-2] | 97.3 | 97.4 | 90 | 94.1 | 90.7 | 89.3 | 98.9 | 96.3 | 91.5 | 85.7 | 70.1 | 84.8 | 103 | 103 | 104 | 107 | 108 | 107 | 99.4 | 86.8 | 61.5 | 45.2 | 104 | 96.9 | 109 | 109 | 102 | 109 | 109 | 107 | 88.9 | 71.3 | 43.7 | -4.98 | -4.83
CCC[C@H](NC(=O)/C(C#N)=C/c1cccc(Br)n1)c1ccccc1 [Degrasyn] | 101 | 105 | 105 | 101 | 103 | 102 | 102 | 97.1 | 89.8 | 15.2 | 53.4 | 106 | 117 | 107 | 114 | 108 | 102 | 88.5 | 17.1 | 6.62 | 4.73 | 0.988 | 106 | 95 | 98.8 | 99.7 | 109 | 99.2 | 81.4 | 28.2 | 3.86 | 2.65 | 1.41 | -6.03 | -5.98
CN(C)CCCNC(=O)c1ccc(-c2cc(O)c3ncccc3c2)cc1 | 101 | 102 | 98.3 | 103 | 103 | 105 | 103 | 101 | 103 | 97 | 54.3 | 98.8 | 104 | 107 | 99.1 | 97.6 | 104 | 93.5 | 93.5 | 70.1 | 66.1 | 4.75 | 98.3 | 97.8 | 106 | 108 | 102 | 111 | 106 | 99 | 81.3 | 67.4 | 14.1 | -4.73 | -4.78
O=C(O)c1ccc(O)c2ncc(N3CCOCC3)cc12 | 101 | 104 | 99.8 | 101 | 98.3 | 93.9 | 102 | 104 | 105 | 107 | 95.2 | 106 | 106 | 108 | 111 | 114 | 107 | 99.7 | 102 | 102 | 93.1 | 51.8 | 106 | 108 | 96.6 | 105 | 106 | 106 | 103 | 103 | 109 | 106 | 35.4 | -4.68 | 
CC1(C)CCC(=C(CN2CCN(CC2)C3=CC=C(C=C3)C(=O)NS(=O)(=O)C4=CC(=C(N[C@H](CCN5CCOCC5)CSC6=CC=CC=C6)C=C4)S(=O)(=O)C(F)(F)F)\C1)/C7=CC=C(Cl)C=C7 [Navitoclax] | 97.3 | 100 | 96.8 | 97.2 | 101 | 103 | 101 | 96.7 | 95 | 89 | 7.55 | 116 | 104 | 101 | 119 | 96.4 | 81.1 | 42.6 | 10.4 | 8.92 | 6.61 | 1.76 | 101 | 105 | 102 | 93.1 | 89.6 | 70.6 | 32.2 | 6.01 | 3.4 | 2.09 | 0.723 | -6.43 | -6.48
CC1(CN2CCC(n3c(=O)[nH]c4ccccc43)CC2)OCc2ccccc2-n2cccc21 (stereo unspecified) [Zaldaride maleate] | 97.7 | 98.1 | 102 | 103 | 99.9 | 99.3 | 98.9 | 102 | 99.5 | 90.9 | 27.1 | 103 | 106 | 102 | 107 | 109 | 110 | 96.7 | 115 | 103 | 100 | 4.29 | 102 | 107 | 101 | 104 | 93.7 | 96.6 | 113 | 101 | 98.1 | 91.4 | 3.87 |  | -4.58

Counter-ions that a name gives are not always drawn. Viability of KB3-1 and Nalm-6 cells after 48 h of drug alone (CellTiter-Glo), 11 doses over about 4.5 log units. % of DMSO wells, lower = more cell loss; AC50 from the fitted curve, lower = more potent. No active / inactive call. Nalm-6 was screened in two runs. AC50 is listed only for well-fitted inhibitory curves. KB3-1 is a HeLa-derived carcinoma line, Nalm-6 a B-cell precursor leukaemia line.
